Test results taken from the supplement of paper PMC10037445.
Several values for one entry are separate records, joined by “and”; a condition that tells them apart may be missing. Equal values may be shown once. Over roughly 2,900 compounds, “NF-kB SEAP reporter activity, fold change vs agonist alone” has its median near 0.99; the highest 2% begin near 2.6. The list shows a part of the results.

Tests used:
RAW-Dual [1] = assay: NF-kB SEAP reporter activity, fold change vs agonist alone; higher = enhanced NF-kB activity
In short: (§1)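 Reporter activity is given as fold change relative to agonist-alone wells. To measure it, 50 nL of library stock was pin-tooled onto RAW-Dual macrophages (50,000 cells/well, DMEM, 384-well plates), a PRR agonist followed 1 h later, and cells stayed at 37 °C, 5% CO2. Twenty hours on, supernatant was assayed for IRF (QuantiLuc luminescence) and NF-κB (QuantiBlue, 620 nm absorbance), and wells under 70% of agonist-control IncuCyte confluency in both mask sets were marked cytotoxic.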

RAW-Dual [2] = assay: NF-kB SEAP reporter activity, fold change vs agonist alone; cytotoxicity flag (confluency mask): not cytotoxic; higher = enhanced NF-kB activity
In short: as §1

RAW-Dual [3] = assay: NF-kB SEAP reporter activity, fold change vs agonist alone; cytotoxicity flag (confluency mask): cytotoxic (confluency <70% of control); higher = enhanced NF-kB activity
In short: as §1

[4] = library stock concentration (final ~1000-fold dilution): 10 mM, cytotoxicity flag (confluency mask): not cytotoxic, agonist: Imiquimod (TLR7) […]
[5] = library stock concentration (final ~1000-fold dilution): 10 mM, cytotoxicity flag (confluency mask): not cytotoxic, agonist: MPLA (TLR4) […]
[6] = agonist: ODN 1826 (TLR9) 0.5 ug/mL
[7] = agonist: Pam2CSK4 (TLR2/6) 0.1 ug/mL
[8] = agonist: Pam3CSK4 (TLR2/1) 0.1 ug/mL
[9] = library stock concentration (final ~1000-fold dilution): 10 mM water, cytotoxicity flag (confluency mask): not cytotoxic, agonist: Imiquimod (TLR7) […]
[10] = library stock concentration (final ~1000-fold dilution): 10 mM water, cytotoxicity flag (confluency mask): not cytotoxic, agonist: MPLA (TLR4) […]

CCCCCCCCCCCCCC(=S)NCCCCC(NC(=O)OCc1ccccc1)C(=O)Nc1ccccc1 (centres undefined)
NF-kB SEAP reporter activity (RAW-Dual [1]; [4]): 1.23
NF-kB SEAP reporter activity (RAW-Dual [1]; [5]): 0.867

CCCCCCCCCCCCCC(=S)NCCCCC(NC(=O)OCc1ccccc1)C(=O)Nc1ccccc1 (centres undefined) (library stock concentration (final ~1000-fold dilution): 10 mM)
NF-kB SEAP reporter activity (RAW-Dual [2]; agonist: LPS (TLR4) 0.1 ug/mL): 0.952
NF-kB SEAP reporter activity (RAW-Dual [2]; [6]): 0.68
NF-kB SEAP reporter activity (RAW-Dual [2]; [7]): 0.764
NF-kB SEAP reporter activity (RAW-Dual [2]; [8]): 0.752

Clc1cc2c(NC3CCCC3)nnc(-c3ccncc3)c2cc1Cl (library stock concentration (final ~1000-fold dilution): 10 mM)
NF-kB SEAP reporter activity (RAW-Dual [2]; agonist: LPS (TLR4) 0.1 ug/mL): 1.41
NF-kB SEAP reporter activity (RAW-Dual [2]; [6]): 0.913
NF-kB SEAP reporter activity (RAW-Dual [2]; [7]): 0.808
NF-kB SEAP reporter activity (RAW-Dual [2]; [8]): 0.717

Clc1cc2c(NC3CCCC3)nnc(-c3ccncc3)c2cc1Cl
NF-kB SEAP reporter activity (RAW-Dual [1]; [4]): 0.878
NF-kB SEAP reporter activity (RAW-Dual [1]; [5]): 1.02

O=C(O)c1ccc(Nc2ncc3c(n2)-c2ccc(Cl)cc2C(c2c(F)cccc2F)=NC3)cc1
NF-kB SEAP reporter activity (RAW-Dual [1]; [4]): 0.802
NF-kB SEAP reporter activity (RAW-Dual [1]; [5]): 0.938

O=C(O)c1ccc(Nc2ncc3c(n2)-c2ccc(Cl)cc2C(c2c(F)cccc2F)=NC3)cc1 (library stock concentration (final ~1000-fold dilution): 10 mM)
NF-kB SEAP reporter activity (RAW-Dual [2]; agonist: LPS (TLR4) 0.1 ug/mL): 0.705
NF-kB SEAP reporter activity (RAW-Dual [2]; [6]): 0.681
NF-kB SEAP reporter activity (RAW-Dual [2]; [7]): 0.555
NF-kB SEAP reporter activity (RAW-Dual [2]; [8]): 0.734

CCn1cc(-c2ccnc3[nH]c(-c4cccc(CN(C)C)c4)cc23)c(-c2ccc(NC(=O)N(C)C)cc2)n1
NF-kB SEAP reporter activity (RAW-Dual [1]; [4]): 3.13
NF-kB SEAP reporter activity (RAW-Dual [1]; [5]): 2.67

CCn1cc(-c2ccnc3[nH]c(-c4cccc(CN(C)C)c4)cc23)c(-c2ccc(NC(=O)N(C)C)cc2)n1 (library stock concentration (final ~1000-fold dilution): 10 mM)
NF-kB SEAP reporter activity (RAW-Dual [2]; agonist: LPS (TLR4) 0.1 ug/mL): 6.43
NF-kB SEAP reporter activity (RAW-Dual [2]; [6]): 0.432
NF-kB SEAP reporter activity (RAW-Dual [2]; [7]): 1.83
NF-kB SEAP reporter activity (RAW-Dual [2]; [8]): 3.76

CCC(=O)NS(=O)(=O)c1ccc(-c2c(-c3ccccc3)noc2C)cc1 (library stock concentration (final ~1000-fold dilution): 10 mM)
NF-kB SEAP reporter activity (RAW-Dual [2]; agonist: LPS (TLR4) 0.1 ug/mL): 1.03 and 1.09
NF-kB SEAP reporter activity (RAW-Dual [2]; [6]): 1.01 and 0.952
NF-kB SEAP reporter activity (RAW-Dual [2]; [7]): 0.986 and 1.17
NF-kB SEAP reporter activity (RAW-Dual [2]; [8]): 0.953 and 0.862

CCOc1ccn(-c2ccc(F)cc2)c(=O)c1C(=O)Nc1ccc(Oc2ccnc(N)c2Cl)c(F)c1
NF-kB SEAP reporter activity (RAW-Dual [1]; [4]): 0.67
NF-kB SEAP reporter activity (RAW-Dual [1]; [5]): 0.669

CCOc1ccn(-c2ccc(F)cc2)c(=O)c1C(=O)Nc1ccc(Oc2ccnc(N)c2Cl)c(F)c1 (library stock concentration (final ~1000-fold dilution): 10 mM)
NF-kB SEAP reporter activity (RAW-Dual [2]; agonist: LPS (TLR4) 0.1 ug/mL): 0.469
NF-kB SEAP reporter activity (RAW-Dual [2]; [6]): 0.556
NF-kB SEAP reporter activity (RAW-Dual [2]; [7]): 0.22
NF-kB SEAP reporter activity (RAW-Dual [2]; [8]): 0.362

O=C(O)CCC(=O)O.O=C(OC1CN2CCC1CC2)N1CCc2ccccc2C1c1ccccc1 (centres undefined)
NF-kB SEAP reporter activity (RAW-Dual [1]; [9]): 0.357
NF-kB SEAP reporter activity (RAW-Dual [1]; [10]): 1.25

O=C(O)CCC(=O)O.O=C(OC1CN2CCC1CC2)N1CCc2ccccc2C1c1ccccc1 (centres undefined) (library stock concentration (final ~1000-fold dilution): 10 mM water)
NF-kB SEAP reporter activity (RAW-Dual [2]; agonist: LPS (TLR4) 0.1 ug/mL): 1.12
NF-kB SEAP reporter activity (RAW-Dual [2]; [6]): 0.564
NF-kB SEAP reporter activity (RAW-Dual [2]; [7]): 0.782
NF-kB SEAP reporter activity (RAW-Dual [2]; [8]): 0.957

COc1ccnc(CS(=O)c2nc3ccc(-n4cccc4)cc3[nH]2)c1C (centres undefined) (library stock concentration (final ~1000-fold dilution): 10 mM)
NF-kB SEAP reporter activity (RAW-Dual [2]; agonist: LPS (TLR4) 0.1 ug/mL): 0.809
NF-kB SEAP reporter activity (RAW-Dual [2]; [6]): 0.974
NF-kB SEAP reporter activity (RAW-Dual [2]; [7]): 0.793
NF-kB SEAP reporter activity (RAW-Dual [2]; [8]): 0.885

COc1ccnc(CS(=O)c2nc3ccc(-n4cccc4)cc3[nH]2)c1C (centres undefined)
NF-kB SEAP reporter activity (RAW-Dual [1]; [4]): 1.05
NF-kB SEAP reporter activity (RAW-Dual [1]; [5]): 0.891

CCN(CC)CCN(Cc1ccc(-c2ccc(C(F)(F)F)cc2)cc1)C(=O)Cn1c(SCc2ccc(F)cc2)nc(=O)c2c1CCC2
NF-kB SEAP reporter activity (RAW-Dual [1]; library stock concentration (final ~1000-fold dilution): 10 mM, cytotoxicity flag (confluency mask): cytotoxic (confluency <70% of control), agonist: Imiquimod (TLR7) […]): 0.14
NF-kB SEAP reporter activity (RAW-Dual [1]; library stock concentration (final ~1000-fold dilution): 10 mM, cytotoxicity flag (confluency mask): cytotoxic (confluency <70% of control), agonist: MPLA (TLR4) […]): 0.249

CCN(CC)CCN(Cc1ccc(-c2ccc(C(F)(F)F)cc2)cc1)C(=O)Cn1c(SCc2ccc(F)cc2)nc(=O)c2c1CCC2 (library stock concentration (final ~1000-fold dilution): 10 mM)
NF-kB SEAP reporter activity (RAW-Dual [3]; agonist: LPS (TLR4) 0.1 ug/mL): 0.18
NF-kB SEAP reporter activity (RAW-Dual [3]; [6]): 0.18
NF-kB SEAP reporter activity (RAW-Dual [3]; [7]): 0.0717
NF-kB SEAP reporter activity (RAW-Dual [3]; [8]): 0.141

O=C(O[C@@H]1Cc2c(O)cc(O)cc2O[C@@H]1c1cc(O)c(O)c(O)c1)c1cc(O)c(O)c(O)c1
NF-kB SEAP reporter activity (RAW-Dual [1]; [4]): 0.341
NF-kB SEAP reporter activity (RAW-Dual [1]; [5]): 0.676

O=C(O[C@@H]1Cc2c(O)cc(O)cc2O[C@@H]1c1cc(O)c(O)c(O)c1)c1cc(O)c(O)c(O)c1 (library stock concentration (final ~1000-fold dilution): 10 mM)
NF-kB SEAP reporter activity (RAW-Dual [2]; agonist: LPS (TLR4) 0.1 ug/mL): 1.49
NF-kB SEAP reporter activity (RAW-Dual [2]; [6]): 0.756
NF-kB SEAP reporter activity (RAW-Dual [2]; [7]): 1.12
NF-kB SEAP reporter activity (RAW-Dual [2]; [8]): 0.712

COC(=O)c1ccc2c(c1)NC(=O)/C2=C(\Nc1ccc(N(C)C(=O)CN2CCN(C)CC2)cc1)c1ccccc1 (library stock concentration (final ~1000-fold dilution): 10 mM)
NF-kB SEAP reporter activity (RAW-Dual [2]; agonist: LPS (TLR4) 0.1 ug/mL): 1.63
NF-kB SEAP reporter activity (RAW-Dual [2]; [6]): 0.674
NF-kB SEAP reporter activity (RAW-Dual [2]; [7]): 1.05
NF-kB SEAP reporter activity (RAW-Dual [2]; [8]): 1.58

COC(=O)c1ccc2c(c1)NC(=O)/C2=C(\Nc1ccc(N(C)C(=O)CN2CCN(C)CC2)cc1)c1ccccc1
NF-kB SEAP reporter activity (RAW-Dual [1]; [4]): 1.29
NF-kB SEAP reporter activity (RAW-Dual [1]; [5]): 1.33

Oc1ccc(Nc2nc(-c3ccc(Cl)cc3)cs2)cc1 (library stock concentration (final ~1000-fold dilution): 10 mM)
NF-kB SEAP reporter activity (RAW-Dual [2]; agonist: LPS (TLR4) 0.1 ug/mL): 0.311
NF-kB SEAP reporter activity (RAW-Dual [2]; [6]): 0.27
NF-kB SEAP reporter activity (RAW-Dual [2]; [7]): 0.227
NF-kB SEAP reporter activity (RAW-Dual [2]; [8]): 0.157

Oc1ccc(Nc2nc(-c3ccc(Cl)cc3)cs2)cc1
NF-kB SEAP reporter activity (RAW-Dual [1]; [4]): 0.665
NF-kB SEAP reporter activity (RAW-Dual [1]; [5]): 0.836

N#Cc1ccc2[nH]c(O)c(-c3ccc(CN4CCOCC4)cn3)c2c1
NF-kB SEAP reporter activity (RAW-Dual [1]; [4]): 0.975
NF-kB SEAP reporter activity (RAW-Dual [1]; [5]): 0.952

N#Cc1ccc2[nH]c(O)c(-c3ccc(CN4CCOCC4)cn3)c2c1 (library stock concentration (final ~1000-fold dilution): 10 mM)
NF-kB SEAP reporter activity (RAW-Dual [2]; agonist: LPS (TLR4) 0.1 ug/mL): 1.06
NF-kB SEAP reporter activity (RAW-Dual [2]; [6]): 0.902
NF-kB SEAP reporter activity (RAW-Dual [2]; [7]): 0.934
NF-kB SEAP reporter activity (RAW-Dual [2]; [8]): 0.805

Nc1nc(NC2CC2)c2ncn(C3C=CC(CO)C3)c2n1.Nc1nc(NC2CC2)c2ncn(C3C=CC(CO)C3)c2n1.O=S(=O)(O)O (centres undefined) (library stock concentration (final ~1000-fold dilution): 10 mM water)
NF-kB SEAP reporter activity (RAW-Dual [2]; agonist: LPS (TLR4) 0.1 ug/mL): 1.22
NF-kB SEAP reporter activity (RAW-Dual [2]; [6]): 1.21
NF-kB SEAP reporter activity (RAW-Dual [2]; [7]): 1.31
NF-kB SEAP reporter activity (RAW-Dual [2]; [8]): 1.18

Nc1nc(NC2CC2)c2ncn(C3C=CC(CO)C3)c2n1.Nc1nc(NC2CC2)c2ncn(C3C=CC(CO)C3)c2n1.O=S(=O)(O)O (centres undefined)
NF-kB SEAP reporter activity (RAW-Dual [1]; [9]): 1.04
NF-kB SEAP reporter activity (RAW-Dual [1]; [10]): 1.07

CCNC1CN(CCCOC)S(=O)(=O)c2sc(S(N)(=O)=O)cc21 (centres undefined) (library stock concentration (final ~1000-fold dilution): 10 mM)
NF-kB SEAP reporter activity (RAW-Dual [2]; agonist: LPS (TLR4) 0.1 ug/mL): 1.54
NF-kB SEAP reporter activity (RAW-Dual [2]; [6]): 1.09
NF-kB SEAP reporter activity (RAW-Dual [2]; [7]): 1.3
NF-kB SEAP reporter activity (RAW-Dual [2]; [8]): 1.19

CCNC1CN(CCCOC)S(=O)(=O)c2sc(S(N)(=O)=O)cc21 (centres undefined)
NF-kB SEAP reporter activity (RAW-Dual [1]; [4]): 1.1
NF-kB SEAP reporter activity (RAW-Dual [1]; [5]): 1.07

CNC(=O)c1c(C)oc2cc(Oc3ncnc4cc(OC)c(OC)cc34)ccc12
NF-kB SEAP reporter activity (RAW-Dual [1]; [4]): 0.938
NF-kB SEAP reporter activity (RAW-Dual [1]; [5]): 1.11

CNC(=O)c1c(C)oc2cc(Oc3ncnc4cc(OC)c(OC)cc34)ccc12 (library stock concentration (final ~1000-fold dilution): 10 mM)
NF-kB SEAP reporter activity (RAW-Dual [2]; agonist: LPS (TLR4) 0.1 ug/mL): 0.944
NF-kB SEAP reporter activity (RAW-Dual [2]; [6]): 1.17
NF-kB SEAP reporter activity (RAW-Dual [2]; [7]): 1.03
NF-kB SEAP reporter activity (RAW-Dual [2]; [8]): 1.2
